# Data from the supplement of paper PMC3334620.
# Over roughly 33,000 sequences, “E-score (-0.5 to 0.5)” has its median near -0.012; the highest 2% begin near 0.29. The list shows a part of the results.
# Biological target: T1, Ybr033w (UniProt P38073)
# T1 sequence: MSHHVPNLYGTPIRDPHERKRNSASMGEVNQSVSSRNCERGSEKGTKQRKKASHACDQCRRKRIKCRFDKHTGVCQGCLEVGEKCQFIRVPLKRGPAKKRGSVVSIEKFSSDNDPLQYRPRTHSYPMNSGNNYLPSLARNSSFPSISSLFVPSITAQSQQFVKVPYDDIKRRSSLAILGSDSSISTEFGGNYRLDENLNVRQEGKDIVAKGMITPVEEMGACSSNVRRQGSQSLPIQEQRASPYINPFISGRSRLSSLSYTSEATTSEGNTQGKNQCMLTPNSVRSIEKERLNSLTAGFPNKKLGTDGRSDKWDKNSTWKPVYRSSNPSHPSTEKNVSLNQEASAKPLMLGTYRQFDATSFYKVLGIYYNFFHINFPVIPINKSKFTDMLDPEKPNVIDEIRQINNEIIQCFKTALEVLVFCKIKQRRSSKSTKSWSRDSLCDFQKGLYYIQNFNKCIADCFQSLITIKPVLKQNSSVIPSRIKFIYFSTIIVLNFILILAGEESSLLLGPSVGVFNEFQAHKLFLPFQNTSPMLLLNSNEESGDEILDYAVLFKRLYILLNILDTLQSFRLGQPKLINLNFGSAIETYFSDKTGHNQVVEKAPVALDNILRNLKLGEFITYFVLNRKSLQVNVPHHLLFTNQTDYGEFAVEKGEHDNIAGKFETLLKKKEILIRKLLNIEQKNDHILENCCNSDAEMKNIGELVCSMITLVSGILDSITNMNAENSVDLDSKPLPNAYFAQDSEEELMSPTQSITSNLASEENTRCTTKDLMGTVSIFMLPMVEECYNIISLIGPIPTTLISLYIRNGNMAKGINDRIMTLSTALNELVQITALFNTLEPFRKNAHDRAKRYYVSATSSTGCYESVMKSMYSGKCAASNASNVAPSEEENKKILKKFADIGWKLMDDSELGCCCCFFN
# Experiment: PBM E-score (8-mer binding enrichment) (E-score (-0.5 to 0.5)); higher = stronger / more preferred TF binding; most listed sequences are background and not binding sites
# Conditions: protein concentration: 200 nM; construct: GST-full length
# How it was run: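 Masliner-normalised scans of fluorescent anti-GST signal were the basis for scoring. That signal came from GST-tagged yeast transcription factors applied at about 100-200 nM to double-stranded universal all-10-mer Agilent arrays on fresh or once-stripped slides. Each ungapped eight-base word, pooled with its reverse complement, received an E-score from the Universal PBM Analysis Suite.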
row,Sequence,PBM E-score
1,CGAGTCGA,0.0303
2,TCGTTTCA,0.181
3,CGGGAGAG,-0.174
4,ACATTGCC,-0.0501
5,TCGAAGAA,-0.0772
6,ACAGAAAT,0.137
7,CCCAGTAA,0.033
8,ACCTGTAA,0.186
9,CTTTATGC,0.103
10,GCGTTAAC,-0.073
11,TTGTAAAA,0.08
12,ACATCGAG,-0.171
13,AAGTGCAT,0.0284
14,ACTATCTG,-0.0489
15,CCCTCCAA,-0.221
16,AGGCTCAT,-0.0489
17,ACCAGAAA,0.178
18,CTTAAAAG,-0.139
19,TAATCCGA,0.326
20,CGAGATAG,-0.107
21,AAGTTAGA,0.235
22,ACAAGGAG,0.0547

row,Sequence,PBM E-score
1,ATTCGCAG,0.113
2,ACAAGATG,0.0627
3,AACGGCTG,-0.126
4,AAATTGGC,0.0475
5,CCATACAC,-0.0116
6,AAGCCACG,-0.181
7,AGCGCGAG,-0.116
8,GCACGTCA,-0.248
9,CCTACAAC,-0.00318
10,ATCACGTA,0.213
11,GCCACACC,-0.134
12,ATTTGTAG,0.00678
13,AGCCAACA,-0.0335
14,ATCTCAGG,-0.0536
15,AGAGCGAT,-0.0718
16,ACGCGTGC,-0.0228
17,AGGGTGGG,-0.0779
18,ACCAAAGC,0.0581
19,ATGATTTG,0.0992
20,CATGTTAG,0.117
21,AGCCGGCA,-0.169
22,AAGCGCCT,-0.28

row,Sequence,PBM E-score
1,GAGGGCCC,-0.324
2,CACTTTGA,-0.16
3,TAGGCATA,0.011
4,GCATTGGC,-0.124
5,GCAATGTA,0.0109
6,ACCCCTGC,-0.333
7,CGAATTTA,0.231
8,ATTGGATC,0.136
9,CGGGAGGC,-0.326
10,ACTAATCC,0.0658
11,TGGTACAA,0.0171
12,GCCTGCCC,-0.358
13,TATTATGA,0.0716
14,CTGAGTTA,-0.067
15,AACCGCGG,0.108
16,CACATCGA,-0.0875
17,AAGAACAT,0.273
18,CAAAGTTG,0.0403
19,GTCCGAGA,0.047
20,ATATTCGC,0.134
21,AAGGGGAT,-0.0478
22,AACTCACT,-0.0239

row,Sequence,PBM E-score
1,TCCCCGCA,-0.168
2,CGGCTAGC,-0.14
3,AGTCTTGG,-0.0411
4,CATTGGCA,-0.0993
5,GGCCAAAC,-0.248
6,TCATGCAA,0.149
7,CTGAATAC,0.173
8,AAGTCGAT,-0.0156
9,AAATCTCC,-0.215
10,CAGAAAAG,0.0452
11,CAGATAGG,-0.0619
12,AGCGATAC,0.0186
13,AACTGTTC,0.142
14,GAAATCGC,0.00105
15,ACGCGCAG,-0.221
16,CCCCCTAG,-0.387
17,CAATTCGG,0.0708
18,CTGGAGAA,-0.115
19,ACTCATCT,0.0382
20,GATACCCC,-0.158
21,AATCCAGC,0.0372
22,CCTATGTC,-0.0437

row,Sequence,PBM E-score
1,CCACACTA,0.196
2,AGCCCCAA,-0.21
3,AAGGTATT,0.152
4,CCCATGAC,-0.111
5,CAATAGTC,-0.065
6,ACCGGATA,0.0698
7,AAAACGTT,0.0685
8,CCTCAAGC,-0.194
9,GTGGACTA,0.00735
10,GGCAGGCA,-0.228
11,CAAATAAA,0.2
12,ACGCGCCT,-0.00355
13,GTGCGGGA,-0.13
14,AAGCGGTG,-0.194
15,AGTGCGCG,-0.148
16,GTGATCAA,0.056
17,ATGTTACC,0.102
18,CTAATGAG,0.114
19,ATAGCACG,-0.202
20,CCGCACGA,-0.0691
21,AAGCACTT,0.0407
22,AGAGCCAC,0.0666
